Results are given in words; binding and its absence hold for the method and conditions named. For some assays here: Binding seen in cells or lysates may run through a third protein. Some entries that bind do so weakly or less than the wild type. Tags and fused reporters may be left off the sequences shown.

For five molecules, binding results are on record in article PMC6794377.

For assay [1], the target named is T1, native p43 (AIMP1), endogenous in human cells (human (endogenous in HEK293T and HeLa)) (UniProt Q12904).
T1 sequence: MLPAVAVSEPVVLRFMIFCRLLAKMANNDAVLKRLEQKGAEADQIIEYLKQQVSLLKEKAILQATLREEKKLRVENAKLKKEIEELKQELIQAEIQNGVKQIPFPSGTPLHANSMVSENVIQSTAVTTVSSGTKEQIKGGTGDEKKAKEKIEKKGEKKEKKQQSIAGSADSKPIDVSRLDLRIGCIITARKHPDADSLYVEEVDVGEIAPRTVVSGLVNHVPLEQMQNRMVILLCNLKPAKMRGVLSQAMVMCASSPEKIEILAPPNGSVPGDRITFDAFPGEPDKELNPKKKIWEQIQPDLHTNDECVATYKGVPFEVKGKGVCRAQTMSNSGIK
As to the kind of experiment: co-IP; transfected HEK293T lysate, IP with anti-p43 antibodies; western blotting. For orientation: A western blot detects proteins with antibodies after separation by electrophoresis.

The target in assay [2] is T2, TLN161, N-terminal appended domain of hThrRS-L (Met1-Ile161), Gal4 DNA binding domain fusion (human) (UniProt A2RTX5).
T2 sequence: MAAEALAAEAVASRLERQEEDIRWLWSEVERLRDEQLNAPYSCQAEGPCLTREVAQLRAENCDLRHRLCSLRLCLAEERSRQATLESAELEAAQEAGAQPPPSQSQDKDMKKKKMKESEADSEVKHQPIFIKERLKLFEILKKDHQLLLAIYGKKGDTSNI
As to the kind of experiment: two-hybrid; pairwise: pGADT7 construct and pGBKT7 construct together in Y2HGold; growth on QDO/X/A (SD/QDO/X) plates.

B1: TLN161 fused with a C-terminal EGFP (TLN161-EGFP) (domain or fragment, UniProt A2RTX5 1-161)
chain: MAAEALAAEAVASRLERQEEDIRWLWSEVERLRDEQLNAPYSCQAEGPCLTREVAQLRAENCDLRHRLCSLRLCLAEERSRQATLESAELEAAQEAGAQPPPSQSQDKDMKKKKMKESEADSEVKHQPIFIKERLKLFEILKKDHQLLLAIYGKKGDTSNI
For the molecule B1, in assay [1], the binding result was “binds”.

B2: p43(79-336), Gal4 activation domain fusion (domain or fragment, UniProt Q12904-2 79-336)
chain: LKKEIEELKQELIQAEIQNGVKQIPFPSGTPLHANSMVSENVIQSTAVTTVSSGTKEQIKGGTGDEKKAKEKIEKKGEKKEKKQQSIAGSADSKPIDVSRLDLRIGCIITARKHPDADSLYVEEVDVGEIAPRTVVSGLVNHVPLEQMQNRMVILLCNLKPAKMRGVLSQAMVMCASSPEKIEILAPPNGSVPGDRITFDAFPGEPDKELNPKKKIWEQIQPDLHTNDECVATYKGVPFEVKGKGVCRAQTMSNSGIK
Take B2: in assay [2], the binding entry is listed as “no binding”.

B3: p43(1-78), Gal4 activation domain fusion (domain or fragment, UniProt Q12904-2 1-78)
chain: MLPAVAVSEPVVLRFMIFCRLLAKMANNDAVLKRLEQKGAEADQIIEYLKQQVSLLKEKAILQATLREEKKLRVENAK
As for B3, the binding result in assay [2] is “binds”.

B4: hThrRS-L-Ha/A-FLAG (enzyme, UniProt A2RTX5 1-802)
chain: MAAEALAAEAVASRAERQEEDARWAWSEAERARDEQLNAPYSCQAEGPCLTREVAQLRAENCDLRHRLCSLRLCLAEERSRQATLESAELEAAQEAGAQPPPSQSQDKDMKKKKMKESEADSEVKHQPIFIKERLKLFEILKKDHQLLLAIYGKKGDTSNIITVRVADGQTVQGEVWKTTPYQVAAEISQELAESTVIAKVNGELWDLDRPLEGDSSLELLTFDNEEAQAVYWHSSAHILGEAMELYYGGHLCYGPPIENGFYYDMFIEDRAVSSTELSALENICKAIIKEKQPFERLEVSKEILLEMFKYNKFKCRILNEKVNTATTTVYRCGPLIDLCKGPHVRHTGKIKTIKIFKNSSTYWEGNPEMETLQRIYGISFPDNKMMRDWEKFQEEAKNRDHRKIGKEQELFFFHDLSPGSCFFLPRGAFIYNTLTDFIREEYHKRDFTEVLSPNMYNSKLWEASGHWQHYSENMFTFEIEKDTFALKPMNCPGHCLMFAHRPRSWREMPIRFADFGVLHRNELSGTLSGLTRVRRFQQDDAHIFCTVEQIEEEIKGCLQFLQSVYSTFGFSFQLNLSTRPENFLGEIEMWNEAEKQLQNSLMDFGEPWKMNPGDGAFYGPKIDIKIKDAIGRYHQCATIQLDFQLPIRFNLTYVSKDGDDKKRPVIIHRAILGSVERMIAILSENYGGKWPFWLSPRQVMVIPVGPTCEKYALQVSSEFFEEGFMADVDLDHSCTLNKKIRNAQLAQYNFILVVGEKEKIDNAVNVRTRDNKIHGEILVTSAIDKLKNLRKTRTLNAEEAF
Turning to B4, in assay [1], the binding entry is on record as “no binding”.

B5: hThrRS-L-Hb/A-FLAG (enzyme, UniProt A2RTX5 1-802)
chain: MAAEALAAEAVASRLERQEEDIRWLWSEVERLRDEQLNAPYSCQAEGPCLTREVAQARAENCDARHRACSARLCAAEERSRQATLESAELEAAQEAGAQPPPSQSQDKDMKKKKMKESEADSEVKHQPIFIKERLKLFEILKKDHQLLLAIYGKKGDTSNIITVRVADGQTVQGEVWKTTPYQVAAEISQELAESTVIAKVNGELWDLDRPLEGDSSLELLTFDNEEAQAVYWHSSAHILGEAMELYYGGHLCYGPPIENGFYYDMFIEDRAVSSTELSALENICKAIIKEKQPFERLEVSKEILLEMFKYNKFKCRILNEKVNTATTTVYRCGPLIDLCKGPHVRHTGKIKTIKIFKNSSTYWEGNPEMETLQRIYGISFPDNKMMRDWEKFQEEAKNRDHRKIGKEQELFFFHDLSPGSCFFLPRGAFIYNTLTDFIREEYHKRDFTEVLSPNMYNSKLWEASGHWQHYSENMFTFEIEKDTFALKPMNCPGHCLMFAHRPRSWREMPIRFADFGVLHRNELSGTLSGLTRVRRFQQDDAHIFCTVEQIEEEIKGCLQFLQSVYSTFGFSFQLNLSTRPENFLGEIEMWNEAEKQLQNSLMDFGEPWKMNPGDGAFYGPKIDIKIKDAIGRYHQCATIQLDFQLPIRFNLTYVSKDGDDKKRPVIIHRAILGSVERMIAILSENYGGKWPFWLSPRQVMVIPVGPTCEKYALQVSSEFFEEGFMADVDLDHSCTLNKKIRNAQLAQYNFILVVGEKEKIDNAVNVRTRDNKIHGEILVTSAIDKLKNLRKTRTLNAEEAF
With B5, the binding entry in assay [1] is listed as “no binding”.
